# The supplement of paper PMC7826260
# This is one part of the list. The data describe in vitro nicking of single-stranded DNA by Rep domains for 1 h at 37 °C with 3 µM enzyme; only the middle of the 90-letter strands is printed. Numbers give uncut DNA relative to the enzyme-free pool, as log2; more negative means more cut, near 0 not cut, and no call is made. Reads are scaled to the total; uncut strands gain when others are lost, and binding without cutting may add a little.
# Key:
# Experiment in all cases: uncleaved DNA left, log2 of reads against the no-enzyme library (log2 ratio); higher = less cleavage (more negative = more Rep cleavage of the k-mer); sequences stand for … in CTCGTCCG…ACCGGAGA
# [1] = test system: T1, Rep nickase domain of Muscovy duck circovirus
# T1 sequence (protein, residues 1-111, tag omitted): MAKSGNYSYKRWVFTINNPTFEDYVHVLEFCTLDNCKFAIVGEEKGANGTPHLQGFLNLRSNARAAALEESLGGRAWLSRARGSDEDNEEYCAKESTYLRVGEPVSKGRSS
# Description: (§1)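 A pool of 90-nt single-stranded DNAs with seven random bases just before the constant AC of the nick site (name = the seven bases) was cut by 3 µM recombinant His6-SUMO-tagged Rep nickase domain (300 nM DNA, 50 mM HEPES pH 8.0, 50 mM NaCl, 1 mM MnCl2, 1 h, 37 °C, three replicates). Uncut DNA was amplified and sequenced.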
# [2] = test system: T2, Rep nickase domain of banana bunchy top virus
# T2 sequence (protein, residues 1-94, tag omitted): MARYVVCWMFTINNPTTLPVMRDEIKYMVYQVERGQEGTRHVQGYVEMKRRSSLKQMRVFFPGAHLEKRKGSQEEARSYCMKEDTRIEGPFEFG
# Description: as §1
# [3] = test system: T3, Rep nickase domain of cabbage leaf curl virus
# T3 sequence (protein, residues 1-116, tag omitted): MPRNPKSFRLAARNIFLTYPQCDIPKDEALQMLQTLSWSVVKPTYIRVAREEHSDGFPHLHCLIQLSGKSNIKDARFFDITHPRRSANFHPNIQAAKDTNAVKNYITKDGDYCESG
# Description: as §1
# [4] = test system: T4, Rep nickase domain of chickpea chlorotic dwarf virus
# T4 sequence (protein, residues 1-124, tag omitted): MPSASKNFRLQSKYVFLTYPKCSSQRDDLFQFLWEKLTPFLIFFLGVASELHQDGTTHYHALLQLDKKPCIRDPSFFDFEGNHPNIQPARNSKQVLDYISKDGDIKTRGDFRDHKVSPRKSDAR
# Description: as §1
# [5] = test system: T5, Rep nickase domain of faba bean necrotic yellows virus
# T5 sequence (protein, residues 1-98, tag omitted): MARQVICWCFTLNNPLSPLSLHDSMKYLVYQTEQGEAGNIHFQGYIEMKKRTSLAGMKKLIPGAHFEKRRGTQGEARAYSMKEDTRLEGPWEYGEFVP
# Description: as §1
# [6] = test system: T6, Rep nickase domain of maize striate mosaic virus
# T6 sequence (protein, residues 1-117, tag omitted): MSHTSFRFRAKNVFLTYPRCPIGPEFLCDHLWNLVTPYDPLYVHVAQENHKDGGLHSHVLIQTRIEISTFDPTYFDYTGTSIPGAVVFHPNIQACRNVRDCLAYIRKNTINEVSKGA
# Description: as §1
# [7] = test system: T7, Rep nickase domain of porcine circovirus 2
# T7 sequence (protein, residues 2-116, tag omitted): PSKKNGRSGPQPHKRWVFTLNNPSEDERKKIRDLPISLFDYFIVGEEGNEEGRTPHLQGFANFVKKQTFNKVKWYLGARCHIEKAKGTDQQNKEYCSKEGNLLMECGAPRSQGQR
# Description: as §1
# [8] = test system: T8, Rep nickase domain of tomato golden mosaic virus
# T8 sequence (protein, residues 1-124, tag omitted): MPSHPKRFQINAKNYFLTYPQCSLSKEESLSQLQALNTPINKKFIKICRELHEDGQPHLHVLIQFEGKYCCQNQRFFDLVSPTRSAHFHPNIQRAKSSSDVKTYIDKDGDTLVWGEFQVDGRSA
# Description: as §1
# [9] = test system: T9, Rep nickase domain of tomato yellow leaf curl virus
# T9 sequence (protein, residues 1-136, tag omitted): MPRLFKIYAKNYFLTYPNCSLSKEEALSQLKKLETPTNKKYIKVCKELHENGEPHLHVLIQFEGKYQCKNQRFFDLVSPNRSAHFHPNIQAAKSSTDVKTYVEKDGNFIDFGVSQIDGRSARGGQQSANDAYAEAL
# Description: as §1
# [10] = test system: T10, Rep nickase domain of wheat dwarf virus
# T10 sequence (protein, residues 1-137, tag omitted): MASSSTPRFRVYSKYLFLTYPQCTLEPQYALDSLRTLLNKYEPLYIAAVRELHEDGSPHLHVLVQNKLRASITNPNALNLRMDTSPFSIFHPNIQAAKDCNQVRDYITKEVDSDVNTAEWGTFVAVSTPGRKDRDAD
# Description: as §1
Sequence,uncleaved DNA left (log2) [1],uncleaved DNA left (log2) [2],uncleaved DNA left (log2) [3],uncleaved DNA left (log2) [4],uncleaved DNA left (log2) [5],uncleaved DNA left (log2) [6],uncleaved DNA left (log2) [7],uncleaved DNA left (log2) [8],uncleaved DNA left (log2) [9],uncleaved DNA left (log2) [10]
TTTTACT,-4,-1.41,-0.676,-3.14,-0.164,-0.367,-3.69,-0.382,-0.131,-0.616
ACAGGTC,-0.07,-0.0537,-0.19,-0.0384,0.0585,-0.724,0.113,0.0222,-0.155,-0.0563
CGCCGGA,-0.000673,0.0728,0.151,0.444,0.0336,0.128,0.0355,-0.0708,-0.0409,-0.0182
GGGCGTG,-0.122,0.0615,0.637,1.57,-0.063,2,0.148,0.033,-0.0827,0.169
CCGTGTA,-0.0101,-0.0524,0.151,-0.286,0.16,0.00466,-0.255,0.0772,0.0408,0.00781
ATAGTAG,0.0635,0.00504,-0.617,-0.446,0.137,-0.963,0.165,0.0711,0.168,0.109
GGGCAGA,0.0673,0.0763,0.884,2.01,-0.109,2.23,0.152,-0.0223,-0.105,0.119
GGAGGAT,-0.0227,0.0282,0.296,1.53,-0.0927,1.98,0.125,-0.0364,0.0195,-0.00779
AAGATCA,-0.00423,0.048,0.0693,-1.16,-0.0666,0.0941,-1.03,-0.0101,-0.0613,0.103
ACAGTTC,0.0449,-0.0209,-0.0649,-0.638,0.0236,-0.888,0.0397,0.0513,-0.151,-0.161
AGGTTGG,0.0469,-0.0244,-0.387,-0.444,-0.0239,-0.899,0.116,-0.132,-0.0728,-0.0557
ACGCTTA,-0.165,-0.196,-0.269,-1.14,-0.0613,-0.572,-0.0478,0.152,-0.0969,0.0277
TTAGGTA,-0.0202,-0.0515,0.399,1.02,-0.0687,1.47,0.0467,0.0552,-0.0963,0.0334
ACCGCCA,-0.0467,0.0804,-0.154,-0.897,0.063,-0.667,-0.0356,-0.016,-0.0378,0.104
GTCGCAA,0.2,0.153,0.528,1.6,0.0681,1.92,-0.0144,0.189,0.0946,0.107
CCTCATT,-0.223,-0.0336,-0.164,-1.8,-0.0936,-0.764,-0.964,-0.19,-0.136,-0.152
GTAATAT,0.156,0.156,0.318,0.87,0.0414,1.84,0.187,0.202,0.112,0.0925
ACATACC,-0.154,0.0423,-0.154,-0.811,-0.00192,-0.652,-0.657,-0.0453,-0.158,-0.0861
GGGTACG,0.0587,-0.00498,0.717,1.71,-0.0678,2.01,0.136,0.0156,-0.00965,0.0782
TATCCGA,0.0113,0.0383,-0.151,-0.469,-0.109,-0.958,0.00643,-0.114,-0.0225,-0.0182
AGCTCGG,-0.052,0.113,0.136,0.95,0.0237,1.31,0.131,0.184,0.0518,0.134
GCCAGCA,-0.00661,0.0997,-0.197,-0.198,-0.0106,-0.767,-0.132,0.00569,-0.11,0.0269
AAGAATC,0.0403,0.0217,0.228,0.211,0.178,0.162,0.0121,0.145,0.0156,0.098
CGGCGCA,-0.119,-0.0163,-0.0899,0.341,-0.0887,0.693,-0.015,0.123,-0.032,-0.129
TCATACG,-0.0743,-0.0124,-0.95,-0.682,-0.00299,-1.18,0.0189,-0.0176,-0.112,-0.234
CGTTGGA,-0.0979,0.000924,-0.255,-0.474,-0.0804,-1.04,-0.0697,-0.205,-0.0734,-0.053
CGTGGTC,-0.0477,-0.0302,0.254,0.363,0.107,0.0952,0.101,-0.0306,-0.0427,-0.0137
GGGAGCT,-0.0352,0.0152,0.784,1.89,-0.0438,2.16,0.0706,-0.125,-0.111,0.173
AAGGCGG,0.0853,0.0723,0.107,0.431,0.0229,0.126,0.206,0.138,-0.0579,-0.00118
TTAAGTT,-0.0262,-0.124,-3.12,-3.34,-0.0754,-1.41,-0.324,-0.627,-0.0818,-1.67
